From ChEMBL document CHEMBL4888484, “Replenishing the malaria drug discovery pipeline: Screening and hit evaluation of the MMV Hit Generation Library 1 (HGL1) against asexual blood stage Plasmodium falciparum ,using a nano luciferase reporter read-out” (2022)
Several values for one entry are separate records, joined by “and”; a condition that tells them apart may be missing. Equal values may be shown once. The campaign covered roughly 150,000 compounds. About 540 (0.36%) showed an effect of 50% or more. This is one part of the list.

Test system: Plasmodium falciparum
Assay: Primary screen in NF54 nanoGlo assay, in single point, at 2uM, 72h; a lower Z score goes with more inhibition
Format: functional, Erythrocyte
Settings: timepoint 72 hour

## CC1CC1c1ccc(CN(C)C(=O)c2ccc(N3CCCC3=O)cc2)o1 (stereo not drawn)
  % Inhibition: -7%
  Z score: 0.92

## O=C(NC1CCCCCC1)c1csc2c1CCNC2
  % Inhibition: -14%
  Z score: 1.25

## c1cnnc(-c2noc([C@@H]3[C@H]4[C@@H]5CC[C@@H](C5)[C@@H]34)n2)c1
  % Inhibition: -5%
  Z score: 0.75

## CCC(=O)N1CCc2ccc(OCc3ccc(C(=O)N4CCOCC4)o3)cc2[C@@H]1c1ccc(C)cc1
  % Inhibition: -6%
  Z score: 0.75

## O=C(NCCc1cn[nH]c1)N1CCC[C@H]1c1ccc(F)cc1F
  % Inhibition: -4%
  Z score: 0.66

## CC1CN(c2ccccc2NCc2cnc3cnccn23)CC(C)O1 (stereo not drawn)
  % Inhibition: -12%
  Z score: 1.6

## c1cncc(-c2cccc(CNc3ncccc3N3CCOCC3)c2)c1
  % Inhibition: 3%
  Z score: -0.34

## Cn1cc(S(=O)(=O)NCc2cccnc2-c2cccnc2)cn1
  % Inhibition: -2%
  Z score: 0.33

## CCc1[nH]c(=O)c(C#N)c2c1CO[C@H](C(C)C)C2
2 µM
  % Inhibition: 2% and 0%

## Fc1ccc2c(c1)nc(-c1ccc3c(c1)OCO3)n2C1CCNCC1
  % Inhibition: 4%
  Z score: -0.6

## CNC(=O)OC[C@H]1CCCCN1C(=O)c1cc(C)nc2c1cnn2C
  % Inhibition: -19%
  Z score: 2.28

## Cc1ccc(Cn2c(C(=O)N3CCN(C(=O)c4ccccc4F)[C@@H](C)C3)cc3ccoc32)cc1
  % Inhibition: -4%
  Z score: 0.62

## Cc1cc2c(N3CCC[C@H]3C(C)(C)O)nccn2n1
  % Inhibition: -14%
  Z score: 1.76

## CCN(C(=O)CCN(C)[C@H]1CS(=O)(=O)C[C@@H]1O)c1ccccc1C
  % Inhibition: -17%
  Z score: 2.3

## O=C(NCC1CCCC1NC(=O)c1ccsc1)c1ccsc1 (stereo not drawn)
  % Inhibition: 8%
  Z score: -1.37

## COc1ccc(CCNc2nc(-c3ccc4c(c3)OCO4)cs2)cc1OC
  % Inhibition: -5%
  Z score: 0.65

## CC(C)(C)c1cc(CN2CCOCC2)c(O)c(CN2CCOCC2)c1
  % Inhibition: -4%
  Z score: 0.54

## O=C(COc1c(F)c(F)c(F)c(F)c1F)N1CCO[C@@H](COCc2ccc(F)cc2Cl)C1
  % Inhibition: -10%
  Z score: 1.46

## O=C(CCNC(=O)c1nc2n(n1)CCCN2)NCc1cccnc1
  % Inhibition: 18%
  Z score: -2.3

## Cc1ccc(-c2cc(-c3ccccc3)c3c(N)c(C(=O)Nc4c(C)ccc5ccccc45)sc3n2)cc1
  % Inhibition: -7%
  Z score: 0.82

## CCn1cc(CN2C[C@@H]3CC[C@H]2CN(C(=O)C2CCC2)C3)cn1
  % Inhibition: 11%
  Z score: -1.51

## COc1cc(N2CCC(N3C[C@@H](C)O[C@@H](C)C3)CC2)ncn1
  % Inhibition: 3%
  Z score: -0.56

## COc1cc2c(C(=O)N3CCCCC3)c(C)n(-c3ccccc3)c2cc1Br
  % Inhibition: 2%
  Z score: -0.21

## O=C(Nc1ccc(C(F)F)nc1)c1coc2c1C(=O)NCCC2
  % Inhibition: 4%
  Z score: -0.68

## O=C(N1CCc2c(cnn2-c2ccccc2)C1)C1(C(F)(F)F)CCOCC1
  % Inhibition: 2%
  Z score: -0.31

## CN1C(=O)[C@@H]2CCC[C@H]1CN(c1ncc(C#N)c(N)n1)C2
  % Inhibition: -13%
  Z score: 1.67

## NC(=O)[C@@H]1CN(Cc2cccc3[nH]ccc23)CCO1
  % Inhibition: -12%
  Z score: 2.27

## CCC(=O)Nc1c(C)noc1/C=C\c1ccc(S(=O)(=O)N2CCN(C3CCCCC3)CC2)cc1
  % Inhibition: -24%
  Z score: 3.35

## Cc1cc(-c2noc(Cc3ccccc3)n2)c2ccccc2n1
  % Inhibition: 31%
  Z score: -3.56

## COc1ccc(C(=O)N2CCc3ccccc3C2)cc1S(=O)(=O)N1CC(C)CC(C)C1 (stereo not drawn)
  % Inhibition: -11%
  Z score: 1.4

## CCCc1c(C(=O)N2CCN(C)CC2)c(=O)cc(C)n1Cc1ccc2c(c1)OCO2
  % Inhibition: 7%
  Z score: -0.89

## O=C1CNC(C(=O)N2CCC[C@H]2c2ccncc2)=NN1c1ccccc1
  % Inhibition: 3%
  Z score: -0.62

## COc1ccc(N2CCN(Cc3cccn3-c3nnc(N4CCN(c5ccccc5)CC4)s3)CC2)cc1
  % Inhibition: -10%
  Z score: 1.71

## Cc1cc(C(=O)Nc2ccc(-n3nnn(CC(=O)N4CCOCC4)c3=O)cc2)no1
  % Inhibition: -6%
  Z score: 1.16

## C[C@H]1CCc2ccccc2N1Cc1nc(C2CC2)no1
  % Inhibition: -15%
  Z score: 1.54

## Cc1cccc(NC[C@H]2CCCN2Cc2nnc(-c3ccccc3)o2)n1
  % Inhibition: -13%
  Z score: 1.95

## Cc1nscc1C(=O)N(c1ccc(C#N)cc1)C1CC1
  % Inhibition: -10%
  Z score: 1.01

## COc1ccc([C@@]2(C)NC(=O)N(CC(=O)Nc3cc(C(F)(F)F)ccc3N3CCOCC3)C2=O)cc1OC
  % Inhibition: 0%
  Z score: 0.03

## COc1cccc2sc(OC3CN(C(=O)c4ccc5c(c4)OCO5)C3)nc12
  % Inhibition: -9%
  Z score: 0.97

## CC(C)CN(CC(=O)N1CC(=O)N(c2ccc(F)cc2)C1)C(=O)c1ccc(Cl)c(Cl)c1
  % Inhibition: 4%
  Z score: -0.37

## O=C(NC1CCC1)c1cccc(S(=O)(=O)N2CCCN3CCC[C@H]3C2)c1
  % Inhibition: 1%
  Z score: -0.19

## CC(C)(C)n1ncc2c1NC(=O)C[C@]21C(=O)Nc2cc(F)ccc21
  % Inhibition: 4%
  Z score: -0.56

## CCOC(=O)Cc1sc(N)nc1C
  % Inhibition: -13%
  Z score: 1.69

## O=C(COc1ccccc1)N1CCOC12CCCCC2
  % Inhibition: 1%
  Z score: -0.08

## O=C(NC[C@H]1CC(=O)N(C2CC2)C1)c1cc(C2CC2)[nH]c(=O)c1
  % Inhibition: 2%
  Z score: -0.27

## c1ccc(CNC2=Nc3ccccc3CCC2)cc1
  % Inhibition: 2%
  Z score: -0.19

## c1ccc(C[C@H](NCCn2cncn2)C2CCCCC2)cc1
  % Inhibition: -6%
  Z score: 0.6

## CC(C)c1ccccc1OC[C@@H](O)CNCCCn1ccnc1
  % Inhibition: 19%
  Z score: -2.6

## O=C(N[C@H]1COc2ccccc2C1=O)C1CCC(F)(F)CC1
  % Inhibition: -19%
  Z score: 1.78

## CC(C)c1nc(C#N)c(C#N)nc1-c1ccc2c(c1)OCCOCCOCCOCCO2
  % Inhibition: 0%
  Z score: 0.02

## O=C(c1ccc(Cl)cc1)N1CCCOC1
  % Inhibition: -6%
  Z score: 0.66

## O=C(Cn1cccc1-c1nc(-c2cccc(Cl)c2)no1)N1CCN(c2ccccc2F)CC1
  % Inhibition: 11%
  Z score: -1.31
